Reference: ChEMBL document CHEMBL5606458, “ASAP - ZIKV NS2B-NS3 protease fluorescence single point” (2024)
Among all 2,700 compounds or so, about 160 (5.9%) showed an effect of 50% or more. The list shows a part of the results.

Target: Nonstructural protein 3 (Zika virus) (UniProt A0A024AXB9)
[1] = PRVABC59, Concentration 50.0 uM, Number of replicates 1.0
[2] = PRVABC59, Concentration 15.0 uM, Number of replicates 1.0
[3] = PRVABC59, Concentration 10.0 uM, Number of replicates 1.0

Sequence of UniProt A0A024AXB9 (A0A024AXB9 as listed by the source): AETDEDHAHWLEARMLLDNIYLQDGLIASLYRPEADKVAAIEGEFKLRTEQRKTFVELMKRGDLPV

`O=Cc1ccc(N2CCC(C(=O)N3CCNC(=O)C34CCCCC4)CC2)cc1` gave an inhibition [1] of 25.5%.

Work on `CC(C)(C)C(=O)Nc1cccc(C(=O)O)c1` yielded an inhibition (PRVABC59, Concentration 49.5 uM, Number of replicates 2.0, Standard deviation 1.311724733674366 %) of -3.38%, an inhibition (PRVABC59, Concentration 99.01 uM, Number of replicates 2.0, Standard deviation 1.8264521879544453 %) of -1.31% and an inhibition (PRVABC59, Concentration 198.0 uM, Number of replicates 2.0, Standard deviation 2.1564588033659025 %) of 0.879%.

For `O=C(NC[C@@H](c1ccc(Cl)cc1)N1CCCC1)c1cc(Cl)ccc1NS(=O)(=O)c1ccc(Oc2ccccc2Cl)cc1`, the inhibition [2] was 17.8%.

With `O=C(O)c1cnn(C2CCN(C(=O)c3ccnc4[nH]cnc34)CC2)c1` the inhibition (PRVABC59, Concentration 49.5 uM, Number of replicates 2.0, Standard deviation 0.4769423778532216 %) was -0.77%, the inhibition (PRVABC59, Concentration 99.01 uM, Number of replicates 2.0, Standard deviation 0.8068274680953539 %) was -0.961% and the inhibition (PRVABC59, Concentration 198.0 uM, Number of replicates 2.0, Standard deviation 0.6955409210557122 %) was -0.489%.

Compound `O=C(NC[C@@H]1CCCN2CCCC[C@H]12)c1cc(Cl)ccc1NS(=O)(=O)c1ccc(Oc2ccccc2Cl)cc1` has an inhibition [2] of -5.27%.

For `Nc1ccc(N2CCN(c3cc(C(F)(F)F)nc(-c4ccccc4)n3)CC2)cn1`, the inhibition (PRVABC59, Concentration 49.5 uM, Number of replicates 2.0, Standard deviation 1.5639731162498847 %) was 7.65%, the inhibition (PRVABC59, Concentration 99.01 uM, Number of replicates 2.0, Standard deviation 1.8998201100215497 %) was 8.51% and the inhibition (PRVABC59, Concentration 198.0 uM, Number of replicates 2.0, Standard deviation 0.2166111991108292 %) was 9.35%.

Compound `O=C(Nc1n[nH]cc1Br)c1cc(Cl)ccc1NS(=O)(=O)c1ccc(Oc2ccccc2Cl)cc1` has an inhibition [2] of 38.1%.

In the case of `O=C(Nc1cc(F)c(F)cc1Br)c1cc(Cl)ccc1NS(=O)(=O)c1ccc(Oc2ccccc2Cl)cc1`, the inhibition [2] is reported as 23.5%.

`NCc1cccc(NC(=O)[C@@H](CCC(N)=O)NC(=O)OCc2ccccc2)c1` was tested, and the inhibition (PRVABC59, Concentration 49.5 uM, Number of replicates 2.0, Standard deviation 2.849846353356957 %) was 1.87%, the inhibition (PRVABC59, Concentration 99.01 uM, Number of replicates 2.0, Standard deviation 1.8981689650842868 %) was 4.03% and the inhibition (PRVABC59, Concentration 198.0 uM, Number of replicates 2.0, Standard deviation 1.5999597813824264 %) was 9.89%.

In the case of `c1ccc2c([C@H]3CCN(Cc4ccncc4)C3)c[nH]c2c1`, the inhibition (PRVABC59, Concentration 49.5 uM, Number of replicates 2.0, Standard deviation 1.9328192800910937 %) is reported as 1.84%, the inhibition (PRVABC59, Concentration 99.01 uM, Number of replicates 2.0, Standard deviation 2.6531402362507164 %) is reported as 5.16% and the inhibition (PRVABC59, Concentration 198.0 uM, Number of replicates 2.0, Standard deviation 2.1917244623609684 %) is reported as 12.1%.

`O=C(N[C@H]1CC2(CCCC2)Oc2ccccc21)c1cc(Cl)ccc1NS(=O)(=O)c1ccc(Oc2ccccc2Cl)cc1` gave an inhibition [2] of 19.1%.

`O=C(c1cc(Cl)ccc1NS(=O)(=O)c1ccc(Oc2ccccc2Cl)cc1)N(CC(F)(F)F)CC(F)(F)F` was tested, and the inhibition [2] was 15.7%.

For `CCCCCC(=O)N[C@H](C(=O)Nc1ccc2[nH]ncc2c1)c1ccc(OCc2ccccc2)cc1`, the inhibition (PRVABC59, Concentration 49.5 uM, Number of replicates 2.0, Standard deviation 4.119087369296993 %) was -4.56%, the inhibition (PRVABC59, Concentration 99.01 uM, Number of replicates 2.0, Standard deviation 4.9173903211796555 %) was -2.38% and the inhibition (PRVABC59, Concentration 198.0 uM, Number of replicates 2.0, Standard deviation 5.05462855212604 %) was 1.33%.

`CC(F)(F)c1cc(C(=O)N2CC(NC(=O)c3ccc4[nH]ncc4c3Cl)C2)[nH]n1` gave an inhibition (PRVABC59, Concentration 49.5 uM, Number of replicates 2.0, Standard deviation 3.1504116407209857 %) of 1.63%, an inhibition (PRVABC59, Concentration 99.01 uM, Number of replicates 2.0, Standard deviation 2.686658613347066 %) of 4.52% and an inhibition (PRVABC59, Concentration 198.0 uM, Number of replicates 2.0, Standard deviation 2.1995883899435253 %) of 9.51%.

`CS(=O)(=O)c1ccc(N2CCN(C(=O)c3cc(Cl)ccc3NS(=O)(=O)c3ccc(Oc4ccccc4Cl)cc3)CC2)c([N+](=O)[O-])c1` was tested, and the inhibition [2] was 18.3%.

Work on `FC(F)c1ncc(CNCc2nnc3ccccn23)s1` yielded an inhibition (PRVABC59, Concentration 49.5 uM, Number of replicates 2.0, Standard deviation 0.09533128229721503 %) of -3.45%, an inhibition (PRVABC59, Concentration 99.01 uM, Number of replicates 2.0, Standard deviation 0.8184107075450271 %) of -3.97% and an inhibition (PRVABC59, Concentration 198.0 uM, Number of replicates 2.0, Standard deviation 0.9784952277826214 %) of -4.65%.

Compound `Cc1c(C(=O)NCc2nc(CN(C)C)cs2)cc(C2CC2)n1C` has an inhibition (PRVABC59, Concentration 49.5 uM, Number of replicates 2.0, Standard deviation 3.07522903867604 %) of -4.12%, an inhibition (PRVABC59, Concentration 99.01 uM, Number of replicates 2.0, Standard deviation 3.6541467701725825 %) of -4.78% and an inhibition (PRVABC59, Concentration 198.0 uM, Number of replicates 2.0, Standard deviation 2.017506755118519 %) of -4.01%.

With `C[C@H](NC(=O)C1CCN(c2ccc(C=O)cc2)CC1)c1c(F)cccc1F` the inhibition [3] was 27.1%.

`O=Cc1ccc(N2CCC(C(=O)Nc3cccnc3Br)CC2)cc1` was tested, and the inhibition [1] was 23.3%.

`C#CCN(Cc1ccccc1Cl)C(=O)C1CCN(c2ccc(C=O)cc2)CC1` showed an inhibition [1] of 26.1%.

Work on `O=C(Nc1cccc(C(F)(F)F)c1F)c1cc(Cl)ccc1NS(=O)(=O)c1ccc(Oc2ccccc2Cl)cc1` yielded an inhibition [2] of 25.4%.

`CC(C)NC(=O)CN1CCN(C(=O)C2CCN(c3ccc(C=O)cc3)CC2)CC1` gave an inhibition [1] of 18.8%.

In the case of `O=Cc1ccc(N2CCC(C(=O)Nc3cc(Cl)cnc3Br)CC2)cc1`, the inhibition [1] is reported as 21.1%.

Work on `Cc1cc(CO)c2cccc(NC(=O)CN3CCOCC3)c2n1` yielded an inhibition (PRVABC59, Concentration 49.95 uM, Number of replicates 2.0, Standard deviation 2.433800281579898 %) of 3.67% and an inhibition (PRVABC59, Concentration 99.9 uM, Number of replicates 2.0, Standard deviation 1.6509696063729793 %) of 12%.

With `Cc1nc(CNC(=O)C2CCN(c3ccc(C=O)cc3)CC2)nc2c1CCCC2` the inhibition [3] was 21.2%.

With `CCCN(C(=O)c1cc(Cl)ccc1NS(=O)(=O)c1ccc(Oc2ccccc2Cl)cc1)[C@@H](C)c1ccccc1` the inhibition [2] was 21.6%.
